Test results: the supplement of paper PMC8728848
This is one part of the list.

What was measured:
Assay in all cases: glycan array binding signal (z-score within array); higher = stronger binding
Conditions in all cases: glycan notation: IUPAC condensed, linker removed
[1] = molecular target: Gal(b1-4)GlcNAc(b1-3)Gal(b1-4)GlcNAc(b1-2)[Gal(b1-4)GlcNAc(b1-3)Gal(b1-4)GlcNAc(b1-6)]Man(a1-6)[Gal(b1-4)GlcNAc(b1-3)Gal(b1-4)GlcNAc(b1-2)Man(a1-3)]Man(b1-4)GlcNAc(b1-4)[Fuc(a1-6)]GlcNAc
In short: (§1)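 Arrays were curated from the Consortium for Functional Glycomics database, 3228 in total, and kept only where the protein sequence was available. Binding is expressed as a within-array Z-score. This score was averaged across arrays of the same protein sequence at different concentrations or buffers and across linkers, and negative values can be read as non-binding.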

[2] = molecular target: Gal(b1-4)GlcNAc(b1-3)Gal(b1-4)GlcNAc(b1-3)Gal(b1-4)GlcNAc
In short: as §1

[3] = molecular target: Gal(b1-4)GlcNAc(b1-3)Gal(b1-4)GlcNAc(b1-3)Gal(b1-4)GlcNAc(b1-2)Man(a1-3)[Gal(b1-4)GlcNAc(b1-3)Gal(b1-4)GlcNAc(b1-3)Gal(b1-4)GlcNAc(b1-2)Man(a1-6)]Man(b1-4)GlcNAc(b1-4)GlcNAc
In short: as §1

[4] = molecular target: Gal(b1-4)GlcNAc(b1-3)Gal(b1-4)GlcNAc(b1-3)Gal(b1-4)GlcNAc(b1-2)Man(a1-3)[Gal(b1-4)GlcNAc(b1-3)Gal(b1-4)GlcNAc(b1-3)Gal(b1-4)GlcNAc(b1-2)Man(a1-6)]Man(b1-4)GlcNAc(b1-4)[Fuc(a1-6)]GlcNAc
In short: as §1

[5] = molecular target: Gal(b1-4)GlcNAc(b1-3)Gal(b1-4)GlcNAc(b1-3)Gal(b1-4)GlcNAc(b1-2)[Gal(b1-4)GlcNAc(b1-3)Gal(b1-4)GlcNAc(b1-3)Gal(b1-4)GlcNAc(b1-6)]Man(a1-6)[Gal(b1-4)GlcNAc(b1-3)Gal(b1-4)GlcNAc(b1-3)Gal(b1-4)GlcNAc(b1-2)Man(a1-3)]Man(b1-4)GlcNAc(b1-4)[Fuc(a1-6)]GlcNAc
In short: as §1

[6] = molecular target: Gal(b1-4)GlcNAc(b1-3)Gal(b1-4)GlcNAc(b1-3)Gal(b1-4)GlcNAc(b1-3)Gal(b1-4)GlcNAc(b1-2)Man(a1-3)[Gal(b1-4)GlcNAc(b1-3)Gal(b1-4)GlcNAc(b1-3)Gal(b1-4)GlcNAc(b1-3)Gal(b1-4)GlcNAc(b1-2)Man(a1-6)]Man(b1-4)GlcNAc(b1-4)GlcNAc
In short: as §1

[7] = molecular target: Gal(b1-4)GlcNAc(b1-3)Gal(b1-4)GlcNAc(b1-3)Gal(b1-4)GlcNAc(b1-3)Gal(b1-4)GlcNAc(b1-2)Man(a1-3)[Gal(b1-4)GlcNAc(b1-3)Gal(b1-4)GlcNAc(b1-3)Gal(b1-4)GlcNAc(b1-3)Gal(b1-4)GlcNAc(b1-2)Man(a1-6)]Man(b1-4)GlcNAc(b1-4)[Fuc(a1-6)]GlcNAc
In short: as §1

[8] = molecular target: Gal(b1-4)GlcNAc(b1-3)Gal(b1-4)GlcNAc(b1-3)Gal(b1-4)GlcNAc(b1-3)Gal(b1-4)GlcNAc(b1-2)[Gal(b1-4)GlcNAc(b1-3)Gal(b1-4)GlcNAc(b1-3)Gal(b1-4)GlcNAc(b1-3)Gal(b1-4)GlcNAc(b1-6)]Man(a1-6)[Gal(b1-4)GlcNAc(b1-3)Gal(b1-4)GlcNAc(b1-3)Gal(b1-4)GlcNAc(b1-3)Gal(b1-4)GlcNAc(b1-2)Man(a1-3)]Man(b1-4)GlcNAc(b1-4)[Fuc(a1-6)]GlcNAc
In short: as §1

[9] = molecular target: Gal(b1-4)GlcNAc(b1-3)Gal(b1-4)GlcNAc(b1-3)Gal(b1-4)GlcNAc(b1-3)Gal(b1-4)GlcNAc(b1-3)Gal(b1-4)GlcNAc(b1-2)Man(a1-3)[Gal(b1-4)GlcNAc(b1-3)Gal(b1-4)GlcNAc(b1-3)Gal(b1-4)GlcNAc(b1-3)Gal(b1-4)GlcNAc(b1-3)Gal(b1-4)GlcNAc(b1-2)Man(a1-6)]Man(b1-4)GlcNAc(b1-4)GlcNAc
In short: as §1

[10] = molecular target: Gal(b1-4)GlcNAc(b1-3)Gal(b1-4)GlcNAc(b1-3)Gal(b1-4)GlcNAc(b1-3)Gal(b1-4)GlcNAc(b1-3)Gal(b1-4)GlcNAc(b1-2)Man(a1-3)[Gal(b1-4)GlcNAc(b1-3)Gal(b1-4)GlcNAc(b1-3)Gal(b1-4)GlcNAc(b1-3)Gal(b1-4)GlcNAc(b1-3)Gal(b1-4)GlcNAc(b1-2)Man(a1-6)]Man(b1-4)GlcNAc(b1-4)[Fuc(a1-6)]GlcNAc
In short: as §1

[11] = molecular target: Gal(b1-4)GlcNAc(b1-3)Gal(b1-4)GlcNAc(b1-3)Gal(b1-4)GlcNAc(b1-3)Gal(b1-4)GlcNAc(b1-3)Gal(b1-4)GlcNAc(b1-2)[Gal(b1-4)GlcNAc(b1-3)Gal(b1-4)GlcNAc(b1-3)Gal(b1-4)GlcNAc(b1-3)Gal(b1-4)GlcNAc(b1-3)Gal(b1-4)GlcNAc(b1-6)]Man(a1-6)[Gal(b1-4)GlcNAc(b1-3)Gal(b1-4)GlcNAc(b1-3)Gal(b1-4)GlcNAc(b1-3)Gal(b1-4)GlcNAc(b1-3)Gal(b1-4)GlcNAc(b1-2)Man(a1-3)]Man(b1-4)GlcNAc(b1-4)[Fuc(a1-6)]GlcNAc
In short: as §1

[12] = molecular target: Gal(b1-4)GlcNAc(b1-3)Gal(b1-4)GlcNAc(b1-3)Gal(b1-4)GlcNAc(b1-3)Gal(b1-4)GlcNAc(b1-3)Gal(b1-4)GlcNAc(b1-3)Gal(b1-4)GlcNAc(b1-2)Man(a1-3)[Gal(b1-4)GlcNAc(b1-3)Gal(b1-4)GlcNAc(b1-3)Gal(b1-4)GlcNAc(b1-3)Gal(b1-4)GlcNAc(b1-3)Gal(b1-4)GlcNAc(b1-3)Gal(b1-4)GlcNAc(b1-2)Man(a1-6)]Man(b1-4)GlcNAc(b1-4)GlcNAc
In short: as §1

[13] = molecular target: Gal(b1-4)GlcNAc(b1-3)Gal(b1-4)GlcNAc(b1-3)GalNAc
In short: as §1

[14] = molecular target: Gal(b1-4)GlcNAc(b1-3)Gal(b1-4)GlcNAc(b1-3)[Gal(b1-4)GlcNAc(b1-3)Gal(b1-4)GlcNAc(b1-6)]GalNAc
In short: as §1

[15] = molecular target: Gal(b1-4)GlcNAc(b1-3)Gal(b1-4)GlcNAc(b1-6)[Gal(b1-3)]GalNAc
In short: as §1

[16] = molecular target: Gal(b1-4)GlcNAc(b1-3)Gal(b1-4)[Fuc(a1-3)]GlcNAc(b1-3)Gal(b1-4)[Fuc(a1-3)]GlcNAc
In short: as §1

[17] = molecular target: Gal(b1-4)GlcNAc(b1-3)GalNAc
In short: as §1

[18] = molecular target: Gal(b1-4)GlcNAc(b1-3)[Fuc(a1-3)GlcNAc(b1-6)]Gal(b1-4)Glc
In short: as §1

[19] = molecular target: Gal(b1-4)GlcNAc(b1-3)[Gal(b1-4)GlcNAc(b1-6)]Gal(b1-4)GlcNAc
In short: as §1

[20] = molecular target: Gal(b1-4)GlcNAc(b1-3)[GlcNAc(b1-6)]Gal(b1-4)GlcNAc
In short: as §1

[21] = molecular target: Gal(b1-4)GlcNAc(b1-6)Gal(b1-4)GlcNAc
In short: as §1

[22] = molecular target: Gal(b1-4)GlcNAc(b1-6)GalNAc
In short: as §1

[23] = molecular target: Gal(b1-4)GlcNAc(b1-6)[Gal(b1-3)]GalNAc
In short: as §1

[24] = molecular target: Gal(b1-4)GlcNAc(b1-6)[Gal(b1-4)GlcNAc(b1-3)]GalNAc
In short: as §1

Gal(b1-4)GlcNAc6P = molecular target: Gal(b1-4)GlcNAc6P
In short: as §1

Gal(b1-6)Gal = molecular target: Gal(b1-6)Gal
In short: as §1

Gal3S(b1-3)GalNAc = molecular target: Gal3S(b1-3)GalNAc
In short: as §1

Gal3S(b1-3)GlcNAc = molecular target: Gal3S(b1-3)GlcNAc
In short: as §1

[25] = molecular target: Gal3S(b1-3)[Fuc(a1-4)]GlcNAc
In short: as §1

Gal3S(b1-4)Glc = molecular target: Gal3S(b1-4)Glc
In short: as §1

B1: Pbx2 (Cryptococcus neoformans) (protein)
chain: AVSPLPSSTELVFYSQKRRRRRICSTATGSLSTPDPTRMTSDPYKRVGMRFSSVPRLLITFLSLLLLVSAAPPCVRFADYDSINQMFIDGGPGTKVLLCPNRLYRLSGPIIFTAADQEIATYGYPTGSERAVLRVEGRNTATAIQGDCRRCARVSVKNLVVDGNRKKLGRMRDFQLATGLVVLGGNEGQSIQNSWIKNPRGFTAIHIREGDKLQCSGARVEKNEIGPVGEEYDPEKDGDDPEMSPLGRPLADGVSIACRDSFIRDNTFRDNTDAAIVVYCSPGTLIHANHIFAQSLSAMAGILMVDSTPFNGDYTGTVVRSNIIDAVSRTIRVGIGIGPTVWSDDTETILTGGSVIGNGLKGRYMGYGIAAAGLKQWTIKDNWDEAKHEGRKSARCFDEPVNPDPIGLLYNRPTMEDCTVQSGFADHDFQYLVCIDGLYDKTNPPKHDPAPLAHDPSPTNAQEDNTVQQDGGDSKSKSIEQPREASDIEAEPSVEKMFSTGSEMMDDVLEHSHQRMHEVIDHLSRRIDILGAASAGKGSGDSKISEVLDPAMSSHLEKLQRKIEHLEFSLRSQIETAIQLRSAIQGWDQEMALVTDWEYDILLDVRHKLELSSYPHDQPLDPRLMRGQSYLNNEAVLVDDHSHPSLEGENLRAMSDRARLNANEEA
glycan array binding signal (z-score) [1]: 0.365
glycan array binding signal (z-score) [2]: 0.154
glycan array binding signal (z-score) [3]: 4.44
glycan array binding signal (z-score) [4]: -0.253
glycan array binding signal (z-score) [5]: 0.898
glycan array binding signal (z-score) [6]: -0.286
glycan array binding signal (z-score) [7]: 0.148
glycan array binding signal (z-score) [8]: -0.098
glycan array binding signal (z-score) [9]: -0.569
glycan array binding signal (z-score) [10]: -0.143
glycan array binding signal (z-score) [11]: -0.123
glycan array binding signal (z-score) [12]: 0.8
glycan array binding signal (z-score) [13]: 1.83
glycan array binding signal (z-score) [14]: 2.83
glycan array binding signal (z-score) [15]: 0.543
glycan array binding signal (z-score) [16]: -0.136
glycan array binding signal (z-score) [17]: -0.314
glycan array binding signal (z-score) [18]: -0.271
glycan array binding signal (z-score) [19]: -0.654
glycan array binding signal (z-score) [20]: -0.271
glycan array binding signal (z-score) [21]: -0.058
glycan array binding signal (z-score) [22]: -0.122
glycan array binding signal (z-score) [23]: -0.496
glycan array binding signal (z-score) [24]: 0.112
glycan array binding signal (z-score) (Gal(b1-4)GlcNAc6P): -0.289
glycan array binding signal (z-score) (Gal(b1-6)Gal): 0.175
glycan array binding signal (z-score) (Gal3S(b1-3)GalNAc): -0.213
glycan array binding signal (z-score) (Gal3S(b1-3)GlcNAc): -0.157
glycan array binding signal (z-score) [25]: -0.382
glycan array binding signal (z-score) (Gal3S(b1-4)Glc): -0.251
